# Measurements as given in article PMC4336329 (PLoS ONE, 2015).
# In all, about 310,000 compounds went through this assay and about 14,000 (4.5%) showed an effect of 50% or more. Effects have a minus sign here. The list shows a part of the results.
# Molecular target: human ether-à-go-go-related gene (hERG) potassium channel (human, UniProt Q12809)
# Experiment: primary screen, population patch clamp on CHO cells stably expressing hERG
# 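Further: peak tail current of the secondary pulse compared with the same well before compound.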
# Sequence of human ether-à-go-go-related gene (hERG) potassium channel (Q12809 whole entry, looked up): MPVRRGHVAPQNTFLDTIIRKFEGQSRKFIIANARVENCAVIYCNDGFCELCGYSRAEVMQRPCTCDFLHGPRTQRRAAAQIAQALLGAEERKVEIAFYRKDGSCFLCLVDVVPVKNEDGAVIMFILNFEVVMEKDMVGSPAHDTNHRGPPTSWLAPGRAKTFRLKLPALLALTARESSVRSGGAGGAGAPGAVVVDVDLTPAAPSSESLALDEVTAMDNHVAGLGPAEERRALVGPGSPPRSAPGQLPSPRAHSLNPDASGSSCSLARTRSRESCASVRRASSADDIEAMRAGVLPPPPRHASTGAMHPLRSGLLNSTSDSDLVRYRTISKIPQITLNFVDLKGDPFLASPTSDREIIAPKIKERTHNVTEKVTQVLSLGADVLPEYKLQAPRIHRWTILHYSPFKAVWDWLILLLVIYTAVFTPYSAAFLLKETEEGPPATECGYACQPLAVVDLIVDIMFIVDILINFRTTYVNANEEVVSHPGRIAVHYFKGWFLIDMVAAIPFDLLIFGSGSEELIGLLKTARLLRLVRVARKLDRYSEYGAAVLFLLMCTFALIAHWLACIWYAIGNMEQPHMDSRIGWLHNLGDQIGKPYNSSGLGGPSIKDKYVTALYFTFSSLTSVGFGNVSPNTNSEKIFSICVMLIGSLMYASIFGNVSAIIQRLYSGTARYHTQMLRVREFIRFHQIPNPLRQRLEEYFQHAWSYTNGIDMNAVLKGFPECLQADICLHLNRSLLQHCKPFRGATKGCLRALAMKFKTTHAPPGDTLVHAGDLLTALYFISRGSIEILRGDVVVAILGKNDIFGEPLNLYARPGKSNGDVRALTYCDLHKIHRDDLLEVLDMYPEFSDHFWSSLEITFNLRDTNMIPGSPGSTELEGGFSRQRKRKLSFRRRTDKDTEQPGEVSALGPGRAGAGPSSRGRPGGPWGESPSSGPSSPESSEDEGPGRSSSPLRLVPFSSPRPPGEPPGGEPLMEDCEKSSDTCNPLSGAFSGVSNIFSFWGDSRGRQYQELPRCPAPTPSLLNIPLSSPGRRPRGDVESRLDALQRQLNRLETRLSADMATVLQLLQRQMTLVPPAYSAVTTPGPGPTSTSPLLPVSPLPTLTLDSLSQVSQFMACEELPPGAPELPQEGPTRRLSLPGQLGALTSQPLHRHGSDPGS
row,Compound,"hERG current change (%, negative = inhibition) at 10uM [%]"
1,COCCn1c(=S)[nH]c2cc(C(=O)NCCCN3CCOCC3)ccc2c1=O,8.93
2,CC(=O)NC(=S)Nc1ccc(NC(=O)c2cccnc2)cc1,10.1
3,CCCc1cc(=O)oc2c(C)c(OCC(=O)NCCCn3ccnc3)ccc12,-75.3
4,NS(=O)(=O)c1ccc(CCNC(=O)Cc2ccc(Cl)cc2)cc1,12.2
5,COc1ccc(CNC(=O)CCCN2C(=O)NC3(CCCC3)C2=O)cc1,-12
6,c1ccc(Cn2nnc3c(NCC4CCCO4)ncnc32)cc1 (stereo not drawn),4.56
7,O=C(c1ccc(F)cc1)N1C2CCC1CC(O)(c1ccccc1F)C2 (stereo not drawn),-2.26
8,CC(C)(C)Nc1nc(Cl)nc(NCCN2CCOCC2)n1,7.39
9,Cc1ccc(NC(=O)c2nc(S(=O)(=O)Cc3ccccc3C)ncc2Cl)cc1C,2.81
10,Cc1cc(C)cc(NC(=O)c2cc(S(=O)(=O)NCc3ccco3)ccc2F)c1,-6.51
11,C/C(=N\NC(=O)c1cccc(Br)c1)c1cccnc1,-1.53
12,Cc1cccc2c(N)c3c(nc12)N(C)CC3.O=C(O)C(=O)O,-23.1
13,COc1cc(/C=C2/N=C(c3ccccc3F)OC2=O)cc(Cl)c1OS(C)(=O)=O,10.3
14,O=C(NN=C1CCN(Cc2ccccc2)CC1)c1cccc(S(=O)(=O)Nc2ccccc2Cl)c1,-4.72
15,CCOc1ccc(S(=O)(=O)n2ccnc2C)cc1,14.5
16,CCn1c(Cc2ccccc2)n[nH]c1=S,1.82
17,Cc1ccc(-c2nnc(SC(C)C#N)n2N)cc1 (stereo not drawn),18.1
18,C=CCN1C(=O)C(CC(=O)NCC)SC1=Nc1ccc(S(N)(=O)=O)cc1 (stereo not drawn),17.1
19,Fc1ccc(CSc2ncnc3ccccc23)cc1,10.6
20,CNC(=S)NCCc1ccc(OC)c(OC)c1,-1.19
21,COc1ccccc1-c1cnn2c(NCc3ccccc3)cc(C)nc12,23.3
22,COc1c(O)cccc1-c1nnn(CCC(=O)OCC(=O)c2ccccc2)n1,26.7
23,COc1ccccc1N(CC(=O)NCCc1ccccc1)C(=O)CCC(=O)Nc1nccs1,-1.5

row,Compound,"hERG current change (%, negative = inhibition) at 10uM [%]"
1,COc1ccc(C(=O)Nc2ccc(Cl)cc2C(=O)NCCO)cc1,-53.8
2,Cn1ccs/c1=N\S(=O)(=O)c1ccc(F)cc1,8.92
3,COc1ccccc1CNS(=O)(=O)c1c(C(=O)N2CCCC2)c(C)n(C)c1C,12.9
4,CC1CCN(S(=O)(=O)c2cccc(S(=O)(=O)N3CCCC3)c2)CC1,-34.6
5,Cc1cccc(N(C)C(=S)Oc2ccc3ccccc3c2)c1,17.2
6,O=C(c1ccc2nc(N3CCCCC3)sc2c1)N1CCN(Cc2ccc3c(c2)OCO3)CC1,-22.9
7,FC(F)(F)c1cccc(N2CCN(C(=S)NCC3CCCO3)CC2)c1 (stereo not drawn),-1.81
8,CC(C)(C)S(=O)(=O)c1cnc2c(-c3ccsc3)cnn2c1N,20.6
9,Cc1ccc(N2C(=O)c3ccccc3C2Nc2ccc(S(=O)(=O)N3CCOCC3)cc2)nc1 (stereo not drawn),-11
10,CCCCOc1ncnc2c1[nH]c1ccc(OCC)cc12,18.7
11,COC(=O)/C=C1/SC(=NC(=O)c2cccc([N+](=O)[O-])c2)NC1=O,18.7
12,Cc1cc(C(=O)C[N+]2(C)CCOCC2)c(C)n1-c1ccc(Br)cc1.[Cl-],20.6
13,O=c1[nH][nH]c(-c2ccccc2)c1C=Nc1ccccc1,7.71
14,O=C(Nc1nc2cc3c(cc2s1)OCCO3)C1=COCCO1,3.42
15,O=C(c1ccco1)N1CCN(C(=O)C2CCN(S(=O)(=O)c3cccc4nsnc34)CC2)CC1,-15.2
16,O=C(N1CCOCC1)N1CCCN(C(=O)N2CCOCC2)CC1,0.257
17,Cc1cc(C)cc(N(CC(=O)NC2CCCCC2)C(=O)c2csnn2)c1,3.84
18,CCCCNC(=O)C1CCCN1C(=O)Nc1ccccc1 (stereo not drawn),0.343
19,CS(=O)(=O)N(CC(=O)N1CCN(Cc2ccccc2)CC1)c1cccc([N+](=O)[O-])c1,-75.5
20,CCCn1cnc2cc(NCc3ccccn3)ccc21,-18.8
21,Cc1ccc(/C=N/N2CCN(Cc3ccc(C)cc3)CC2)cc1,1.35
22,Cc1c(C)[n+](=O)c(-c2ccco2)c(C)n1[O-],12.2
23,Cn1c(SCCCC(=O)c2ccccc2)nnc1-c1ccncc1,-42.9

row,Compound,"hERG current change (%, negative = inhibition) at 10uM [%]"
1,COc1ccc(-n2c(Cc3cccn3C)nnc2SCC(=O)NCc2ccco2)cc1,-12.9
2,Cc1ccc(-n2nc3c(c2NC(=O)c2c(-c4ccccc4Cl)noc2C)CSC3)cc1,0.363
3,CCOC(=O)[C@@H]1[C@H]2COc3cc(OC)ccc3[C@H]2N2C(=O)N(c3cccc(Cl)c3)C(=O)[C@@]12C,2.93
4,O=C(CSc1nc2ccccc2o1)c1ccc2c(c1)OCCO2,-1.98
5,Cc1sc2ncnc(NCCCN3CCCC3=O)c2c1C,3.27
6,CC1=N/C(=C\c2ccc3c(c2)OCO3)C(=O)N1c1ccc(C(=O)O)cc1,7.19
7,CCOc1cc(/C=N/O)cc(Cl)c1OC,0.707
8,COc1ccc(NC(=S)NC(NC(=O)CCl)C(Cl)(Cl)Cl)c([N+](=O)[O-])c1 (stereo not drawn),17.2
9,CCCCN(C(=O)c1ccccc1Br)C1CCS(=O)(=O)C1 (stereo not drawn),-3.49
10,CC(C)(C)SCCNS(=O)(=O)c1ccc(F)cc1,6.24
11,Cn1nnnc1SCC(=O)NC(=O)Cc1ccccc1,1.02
12,Cc1ccc(S(=O)(=O)NC(CCc2ccccc2)CC(=O)C(C)(C)C)cc1 (stereo not drawn),-0.463
13,CN1CCN(c2ccc([N+](=O)[O-])cc2C(=O)Nc2ccccc2)CC1,-71.1
14,Oc1ccc(C[C@@H]2CNCCN2CC2CCCCC2)cc1,-2.48
15,O=C(/C=C/c1ccco1)NCc1ccc(F)cc1,9.33
16,COc1ccc(CN(C)C(=O)C(Cc2ccccc2)NC(=O)c2ccccc2)c(OC)c1 (stereo not drawn),-13.5
17,Cn1nccc1/C=C(/C#N)S(=O)(=O)c1ccccc1,8.05
18,CC1(C)Cc2nc3[nH]c(=S)[nH]c(=O)c3cc2CO1,9.05
19,Cc1nc(C(=O)Nc2cccc(Cl)c2)nn1-c1cc(OC(C)C)c(Cl)cc1Cl,-5.08
20,CCN(CC)CCCNC(=O)c1cc(Sc2nnc(C)s2)nc2ccccc12,-40.4
21,O=C(Cn1nnc(-c2ccncc2)n1)N(C1CCCCC1)C1CCCCC1,-21.3
22,COc1ccc(/C=C/C(=O)C(C)(C)C)cc1OC,-4.28
23,Cc1c(C(=O)NCCCN2CCCC2=O)oc2ccc(S(=O)(=O)N3CCOCC3)cc12,-3.55

row,Compound,"hERG current change (%, negative = inhibition) at 10uM [%]"
1,COCCN(C(=O)c1ccco1)c1nc(-c2ccccc2)cs1,4.36
2,CCNC(=O)O/N=C(\C)c1sc(-c2ccc(Cl)cc2)nc1C,-23.9
3,CCC1(C)Cc2nc3[nH]c(=S)n(-c4ccc(C)cc4)c(=O)c3cc2CO1 (stereo not drawn),-2.97
4,Cc1ccc(-c2nnc(SCC(=O)N3c4ccccc4NC(=O)C3(C)C)n2N)cc1,-13.4
5,CCOC(=O)c1c(N)sc(C(=O)N2CCCCCC2)c1C,2.28
6,C=CCOCCN1C(=O)C2C(c3ccccc3)C=CC(c3ccccc3)C2C1=O (stereo not drawn),4.32
7,O=C(NCCN1CCCCC1)c1ccc(=O)oc1,2.97
8,COc1ccc(NC(=O)C(OC(=O)c2cnccn2)c2ccccc2)cc1Cl (stereo not drawn),24.7
9,CCOc1cc(C2Nc3ccccc3NC3=C2C(=O)CC(C)(C)C3)ccc1O (stereo not drawn),12.7
10,C=CCc1c(C)nc(C)nc1N/N=C/c1ccc(F)cc1,-30.9
11,Cc1cc(-c2ccccc2)nc(N2CCN(c3ccccn3)CC2)n1,1.11
12,CCC(=O)Nc1sc(C(=O)Nc2ccccc2)c(C)c1C(=O)OC,-2.99
13,CCCCNCC#CCOc1cc(C)ccc1C(C)C.O=C(O)C(=O)O,13.4
14,COc1ccc(/C=N/NC(=O)c2ccc(N)cc2)cc1Cn1cc([N+](=O)[O-])cn1,-7.62
15,CC(=O)c1ccc(C(=O)Nc2sc3c(c2C(N)=O)CCN(Cc2ccccc2)C3)cc1.Cl,-35.3
16,N=c1oc2ccccc2cc1C(=O)Nc1ccccc1,6.6
17,O=C(CCl)N1c2ccccc2CCc2ccccc21,8.65
18,O=C(Nc1cccc(C(=O)O)c1)/C(=C/c1ccccc1)NC(=O)c1cccc(Br)c1,4.3
19,Cn1c(CN2CCN(C(=O)COc3ccccc3)CC2)nc2cc([N+](=O)[O-])ccc21,-55.2
20,CC(=O)c1cccc([N+](=O)[O-])c1,17.7
21,Cc1ccc(N(C)S(=O)(=O)c2cccc(C(=O)Oc3ccc4c(C)cc(=O)oc4c3)c2)cc1,19.7
